Measured values reported in PubChem BioAssay AID504332 (National Center for Advancing Translational Sciences (NCATS), 2011).
Out of some 350,000 compounds screened, about 31,000 (8.9%) were called active. Inconclusive results, whose numbers are uncertain, are shown with a selection of clear calls. The call rests on the fitted dose curve; in most records, active means well fitted inhibition curve with a large enough effect; inconclusive means small, poorly fitted or top-dose-only effect; inactive means no such curve, though single readings can be large or run the other way. Where the call is inconclusive, the potency comes from a doubtful curve fit. Where a SMILES comes first, the peptide text is derived from it.

What follows are compounds tested against Histone-lysine N-methyltransferase EHMT2 (Homo sapiens) (UniProt Q96KQ7) (assay: qHTS Assay for Inhibitors of Histone Lysine Methyltransferase G9a). Settings: G9a H3K9 monomethylation, AlphaScreen, 2 h; activity, negative = inhibition: at 59 µM (top of the series) unless noted.
Sequence of UniProt Q96KQ7 (Q96KQ7 whole entry, looked up): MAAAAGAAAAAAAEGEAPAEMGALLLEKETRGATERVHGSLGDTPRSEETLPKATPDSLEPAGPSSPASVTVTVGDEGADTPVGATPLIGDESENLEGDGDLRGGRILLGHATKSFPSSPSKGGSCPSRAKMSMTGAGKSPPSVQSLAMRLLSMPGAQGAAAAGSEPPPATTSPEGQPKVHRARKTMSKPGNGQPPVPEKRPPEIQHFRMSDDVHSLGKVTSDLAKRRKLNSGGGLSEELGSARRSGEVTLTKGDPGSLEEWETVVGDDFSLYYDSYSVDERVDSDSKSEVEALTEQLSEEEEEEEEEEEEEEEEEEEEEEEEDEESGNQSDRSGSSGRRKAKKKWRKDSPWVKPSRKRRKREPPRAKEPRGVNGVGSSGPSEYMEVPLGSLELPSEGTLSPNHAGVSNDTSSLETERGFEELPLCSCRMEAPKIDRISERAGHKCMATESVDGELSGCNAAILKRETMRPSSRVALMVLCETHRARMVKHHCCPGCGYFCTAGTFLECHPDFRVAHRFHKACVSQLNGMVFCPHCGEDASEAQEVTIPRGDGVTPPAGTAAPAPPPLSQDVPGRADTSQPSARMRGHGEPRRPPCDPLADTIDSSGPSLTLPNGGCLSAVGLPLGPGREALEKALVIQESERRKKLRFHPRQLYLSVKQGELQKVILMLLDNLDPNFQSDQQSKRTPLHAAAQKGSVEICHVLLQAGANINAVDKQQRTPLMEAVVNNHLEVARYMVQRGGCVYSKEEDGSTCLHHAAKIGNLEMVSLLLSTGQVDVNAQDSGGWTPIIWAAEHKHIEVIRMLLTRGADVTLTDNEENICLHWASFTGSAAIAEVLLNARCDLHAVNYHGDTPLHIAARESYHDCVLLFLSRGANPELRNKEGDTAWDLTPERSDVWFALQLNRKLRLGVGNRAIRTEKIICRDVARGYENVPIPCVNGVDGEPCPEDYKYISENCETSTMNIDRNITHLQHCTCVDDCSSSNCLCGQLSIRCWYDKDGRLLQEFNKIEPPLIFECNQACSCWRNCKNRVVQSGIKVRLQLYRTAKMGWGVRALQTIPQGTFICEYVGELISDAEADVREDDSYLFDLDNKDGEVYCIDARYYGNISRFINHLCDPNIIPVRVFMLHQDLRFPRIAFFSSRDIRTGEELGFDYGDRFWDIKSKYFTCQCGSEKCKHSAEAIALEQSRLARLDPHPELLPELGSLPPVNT
In short: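 AlphaScreen detection with an anti-monomethyl H3K9 antibody quantified product after a 2 h room-temperature reaction containing 500 nM biotinylated H3K9 peptide, 20 µM SAM and 20 nM enzyme, which had been preincubated 15 min with compound.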
Further: nearly all actives have a fitted effect of over 75% in size.
On the % scale 0 is the no-effect control and ±100 the full control effect; potency means the concentration at half of the fitted maximal effect; tags describe the fitted curve by direction and shape.

Question: `O=C(NCc1cn(-c2ccccc2)nc1-c1ccccc1)c1cc([N+](=O)[O-])cc([N+](=O)[O-])c1` was tested. Which Potency did it give?
Answer: inconclusive: 89.1 µM [inhibitor, single point]

Question: For `COc1ccc(-c2c3c(=O)n(C)c(=O)n(C)c3c3n2-c2ccccc2NC3c2ccc(O)cc2O)cc1` (centres undefined), which “activity, negative = inhibition” value is on record?
Answer: inactive: 6.92%

Question: `CCCCn1c(SCC(=O)O)nc2ccccc21` was tested. Which Potency did it give?
Answer: inconclusive: 0.891 µM [inhibitor, full curve, poor fit]

Question: Which Potency does the source give for `COc1ccc2c(Sc3ccc(C)cc3)c(C(=O)NCCc3ccccc3)[nH]c2c1` here?
Answer: inconclusive: 28.2 µM [inhibitor, single point]

Question: `CCN1CCCC1CN(Cc1cc2ccc(C)cc2[nH]c1=O)C(=S)Nc1ccccc1C(=O)OC` (centres undefined) was tested. Which Potency did it give?
Answer: inconclusive: 79.4 µM [inhibitor, partial curve, poor fit]

Question: How did the Potency turn out when `CC(=O)Nc1ccc(S(=O)(=O)NCC(=O)NNC(=O)c2csc(N3CCOCC3)n2)cc1` was run?
Answer: inconclusive: 11.2 µM [inhibitor, partial curve, poor fit]

Question: Which Potency does the source give for `CCOC(=O)C1=C(C)Nc2nnnn2C1c1c[nH]c2ccccc12` (centres undefined) here?
Answer: inconclusive: 79.4 µM [inhibitor, single point]

Question: Which Potency does the source give for `Cc1cc(C)c2nc(NNC(=O)c3ccc(S(=O)(=O)N4CCCCC4)cc3)sc2c1` here?
Answer: active: 25.1 µM

Question: For `COCCn1c(=O)c(C)nc2cnc(Oc3cccc(Cl)c3)nc21`, which activity, negative = inhibition is on record?
Answer: inactive: 0.249% [at 0.501 µM]

Question: `O=C1Nc2ccccc2/C1=C/C(=O)c1cccs1` was tested. Which Potency did it give?
Answer: inconclusive: 2.82 µM [inhibitor, partial curve, poor fit]

Question: `O=C(CN1CCOc2ccccc21)NC1CCN(Cc2ccccc2)CC1` was tested. Which Potency did it give?
Answer: inconclusive: 7.08 µM [inhibitor, partial curve, poor fit]

Question: How did the Potency turn out when `CCCOc1ccc(Cn2c(O)cc(=O)[nH]c2=O)cc1` was run?
Answer: inconclusive: 10 µM [inhibitor, partial curve, poor fit]

Question: `COc1ccc(C2CC(c3cccs3)=NN2C(=O)CSc2nnnn2C)cc1OC` (centres undefined) was tested. Which Potency did it give?
Answer: inconclusive: 50.1 µM [inhibitor, partial curve, poor fit]

Question: For `CCOC(=O)C1=C(C)NC(=O)NC1c1cn(-c2ccccc2)nc1-c1ccc(OC(C)C)cc1` (centres undefined), which Potency is on record?
Answer: inconclusive: 8.91 µM [inhibitor, partial curve, poor fit]

Question: How did the Potency turn out when `C=CCN(CC=C)c1nc2ccccc2nc1C(C#N)C(=O)OCCOC` (centres undefined) was run?
Answer: active: 50.1 µM

Question: Which Potency does the source give for `Cc1ccc(C2C(C#N)=C(N)Oc3cc(C)oc(=O)c32)o1` (centres undefined) here?
Answer: inconclusive: 89.1 µM [inhibitor, single point]

Question: Which Potency does the source give for `CN1CCN(/N=C/c2nc(-c3ccc(Cl)cc3)n3ccccc23)CC1` here?
Answer: active: 15.8 µM

Question: Which “activity, negative = inhibition” value does the source give for `COc1ccc(NC(=O)c2ccc(OCC3CCCO3)cc2)cc1Cl` (centres undefined) here?
Answer: inactive: -1.92% [at 102 µM]

Question: How did the “activity, negative = inhibition” value turn out when `CC1CC(C)CN(C(=O)C(Cc2ccccc2)NC(=O)c2ccccc2)C1` (centres undefined) was run?
Answer: inactive: 16% [at 102 µM]

Question: `Cc1ccc(-n2ncc3c2CCCC3NC(=O)c2ocnc2C)cc1C` (centres undefined) was tested. Which Potency did it give?
Answer: inconclusive: 89.1 µM [inhibitor, single point]

Question: For `N#C/C(=C\c1cccnc1)C(=O)Nc1ccccc1`, which “activity, negative = inhibition” value is on record?
Answer: inactive: -13.7% [at 102 µM]

Question: With `COc1cccc2sc(N(CCCN(C)C)C(=O)C(c3ccccc3)c3ccccc3)nc12` as the compound, how does the Potency read?
Answer: active: 6.31 µM

Question: `CN(C)/C=N/c1sc2c(c1C#N)CCCCC2` was tested. Which Potency did it give?
Answer: inconclusive: 89.1 µM [inhibitor, single point]

Question: Which Potency does the source give for `CN(C)S(=O)(=O)c1ccc(N2CCCC2)c(C(=O)Nc2ccc(F)cc2F)c1` here?
Answer: active: 11.2 µM

Question: `Cc1ccc(S(=O)(=O)NC2CCSC2=O)cc1C` (centres undefined) was tested. Which activity, negative = inhibition did it give?
Answer: inconclusive: -51.5% [inhibitor] [at 12.7 µM]

Question: For `CC(=O)Nc1cccc(NC(=O)c2ccc3[nH]c(C)c(C)c3c2)c1`, which “activity, negative = inhibition” value is on record?
Answer: inactive: -4.47% [at 102 µM]

Question: How did the Potency turn out when `O=C1CN(C(=O)c2cnccn2)c2ccccc2N1` was run?
Answer: inconclusive: 79.4 µM [inhibitor, partial curve, poor fit]

Question: For `O=C(COC(=O)/C=C/c1ccco1)NCCc1ccccc1`, which Potency is on record?
Answer: inconclusive: 56.2 µM [inhibitor, partial curve, poor fit]

Question: Which Potency does the source give for `CCCNC(=O)c1ccc(-c2nc(CS(=O)(=O)c3ccc(C)cc3)c(C)o2)cc1` here?
Answer: inconclusive: 5.01 µM [inhibitor, partial curve, poor fit]

Question: How did the Potency turn out when `Cc1ccc(C(=O)OCC(=O)c2ccc(S(=O)(=O)N3CCCCC3)cc2)o1` was run?
Answer: active: 50.1 µM

Question: With `CC(=O)Nc1ccc(S(=O)(=O)N(C)CC(=O)OCC(=O)Nc2ccc3c(c2)OCO3)cc1` as the compound, how does the “activity, negative = inhibition” value read?
Answer: inactive: 16.1%

Question: For `Cc1ccsc1/C=N/n1cnc2sc(C)c(C)c2c1=O`, which “activity, negative = inhibition” value is on record?
Answer: inactive: 11.7%

Question: How did the Potency turn out when `Fc1ccc(-c2nn3c(C4COc5ccccc5O4)nnc3s2)cc1` (centres undefined) was run?
Answer: active: 3.16 µM

Question: Which activity, negative = inhibition does the source give for `O=c1c2ccccc2c(-c2ccccc2)nn1Cc1c(Cl)cccc1Cl` here?
Answer: inactive: 4.42% [at 12.7 µM]

Question: How did the Potency turn out when `CN(C)S(=O)(=O)c1cccc(-c2nn(-c3ccccc3)cc2/C=C2\SC(=S)N(CC(=O)O)C2=O)c1` was run?
Answer: inconclusive: 39.8 µM [inhibitor, partial curve, poor fit]

Question: With `Cc1cc(Br)ccc1NCc1ccccn1` as the compound, how does the Potency read?
Answer: inconclusive: 3.55 µM [inhibitor, full curve, poor fit]

Question: How did the activity, negative = inhibition turn out when `CC1CCN(c2ccc(NC(=O)c3ccccc3[N+](=O)[O-])cc2)CC1` was run?
Answer: inconclusive: -77.1% [inhibitor]

Question: Which Potency does the source give for `CC(=O)NC(Cc1ccccc1)C(=O)NC(Cc1ccccc1)C(=O)O` (stereo not drawn) (Ac-Phe-Phe-OH; configuration not given here) here?
Answer: inconclusive: 89.1 µM [inhibitor, single point]

Question: For `O=C(c1ccc2c(c1)N(Cc1c(F)cccc1Cl)C(=O)c1ccccc1S2)N1CCOCC1`, which “activity, negative = inhibition” value is on record?
Answer: inactive: -26.6%

Question: For `COc1cc(/C=N/N2CCN(Cc3ccccc3)CC2)cc(OC)c1OC(C)=O`, which Potency is on record?
Answer: active: 50.1 µM

Question: For `COc1cc(/C=N/NC(=S)Nc2cccnc2)cc(OC)c1O`, which Potency is on record?
Answer: inconclusive: 79.4 µM [inhibitor, single point]

Question: How did the Potency turn out when `Nc1c(C(=O)NCc2ccc(Cl)cc2)sc2nc3c(c(C(F)(F)F)c12)CCC3` was run?
Answer: active: 44.7 µM

Question: With `COc1ccc(-c2nnc(SCC(=O)Nc3cc(C)on3)o2)cc1` as the compound, how does the “activity, negative = inhibition” value read?
Answer: inactive: 13.8% [at 102 µM]

Question: How did the Potency turn out when `O=C(O)c1cccc(-c2nnn(Cc3ccccc3)n2)c1` was run?
Answer: inconclusive: 39.8 µM [inhibitor, single point]

Question: How did the Potency turn out when `C[C@H](C(=O)CC(=O)OC(C)(C)C)[C@H](O)c1ccc(C(F)(F)F)cc1` was run?
Answer: active: 79.4 µM

Question: For `Cc1ccccc1-c1noc(-c2cccnc2N2CCN(c3ccccc3)CC2)n1`, which “activity, negative = inhibition” value is on record?
Answer: inactive: -42.8%

Question: Which Potency does the source give for `CCCCS(=O)(=O)CC(O)CSc1nc(-c2ccc(C)cc2)cc(-c2ccccc2)c1C#N` (centres undefined) here?
Answer: active: 7.94 µM

Question: With `COc1cccc(C(=O)Nc2cccc(-c3cn4ccsc4n3)c2)c1OC` as the compound, how does the “activity, negative = inhibition” value read?
Answer: inactive: -28.8%

Question: How did the Potency turn out when `CC1CCc2sc(C(=O)N(C)CC(=O)Nc3cccc(F)c3)cc2C1` (centres undefined) was run?
Answer: inconclusive: 25.1 µM [inhibitor, partial curve, poor fit]

Question: With `CCOC(=O)c1c(/N=C/c2cc([N+](=O)[O-])ccc2O)sc(C)c1C` as the compound, how does the Potency read?
Answer: inconclusive: 31.6 µM [inhibitor, single point]

Question: Which Potency does the source give for `CCOc1ccccc1NC(=O)c1cc(C(=O)c2cc(Br)ccc2O)coc1=N` here?
Answer: inconclusive: 7.94 µM [inhibitor, full curve]

Question: For `O=C(NC(=S)NC1CCCc2ccccc21)c1ccco1` (centres undefined), which “activity, negative = inhibition” value is on record?
Answer: inactive: -34.9% [at 102 µM]

Question: With `COc1ccc(CC(NC(C)=O)C(=O)NC2CCN(c3ncccc3[N+](=O)[O-])CC2)cc1` (centres undefined) as the compound, how does the “activity, negative = inhibition” value read?
Answer: inactive: 5.13% [at 102 µM]

Question: Which Potency does the source give for `Cc1ccc(C(=O)COC(=O)CNS(=O)(=O)c2ccccc2)cc1[N+](=O)[O-]` here?
Answer: inconclusive: 0.199 µM [inhibitor, full curve, poor fit]

Question: `CCCCn1c(N)c(N(CC)C(=O)CSCC(=O)Nc2ccc(OC)cc2)c(=O)[nH]c1=O` was tested. Which Potency did it give?
Answer: active: 50.1 µM

Question: Which Potency does the source give for `CCOC(=O)C(CSCC(=O)c1ccc(Cl)cc1Cl)NC(=O)OC(C)(C)C` (centres undefined) here?
Answer: inconclusive: 15.8 µM [inhibitor, partial curve, poor fit]

Question: Which Potency does the source give for `O=C(NCCCN1CCN(c2ccc(F)cc2)CC1)c1cnn(-c2ccc(F)cc2)c1-n1cccc1` here?
Answer: inconclusive: 31.6 µM [inhibitor, single point]

Question: With `COc1ccc2c(CC(=O)OCC(=O)Nc3ccc4c(c3)OCO4)coc2c1` as the compound, how does the activity, negative = inhibition read?
Answer: inconclusive: -67.8% [inhibitor]

Question: `COC(=O)Oc1nsnc1N1CCOCC1` was tested. Which Potency did it give?
Answer: active: 2.82 µM

Question: How did the Potency turn out when `COc1ccc(NC(=O)c2ccc3c(SCC(=O)O)c4c(nc3c2)CCCC4)c(OC)c1` was run?
Answer: active: 50.1 µM

Question: With `CCN(CC)C(=O)C1CCCN(C(=O)CCn2nnnc2CN2CCOCC2)C1` (centres undefined) as the compound, how does the Potency read?
Answer: inconclusive: 8.91 µM [inhibitor, partial curve]

Question: With `COc1ccc(CCNc2ccc(C(=O)O)cc2[N+](=O)[O-])cc1OC` as the compound, how does the Potency read?
Answer: inconclusive: 70.8 µM [inhibitor, partial curve, poor fit]

Question: `COc1ccc(NC(=O)C2CCCN(c3ncnc4c3nc3n4CCCCC3)C2)c(OC)c1` (centres undefined) was tested. Which “activity, negative = inhibition” value did it give?
Answer: inactive: 5.06%

Question: For `COC(=O)c1ccc(CSc2nc(C)nc3sc(C)c(C)c23)o1`, which Potency is on record?
Answer: inconclusive: 100 µM [inhibitor, single point]

Question: How did the Potency turn out when `O=C(COC(=O)c1cccc(S(=O)(=O)N2CCOCC2)c1)Nc1ncc(C(F)(F)F)cc1Cl` was run?
Answer: inconclusive: 25.1 µM [inhibitor, single point]

Question: `Cc1cccc(N/N=C/c2ccc(O)c(O)c2O)c1` was tested. Which Potency did it give?
Answer: active: 1.12 µM

Question: For `NNC(=O)c1nc[nH]c1C(=O)Nc1ccccc1`, which Potency is on record?
Answer: inconclusive: 79.4 µM [inhibitor, partial curve, poor fit]

Question: With `Cn1c(=O)c2c(nc(Br)n2Cc2nnc(N)s2)n(C)c1=O` as the compound, how does the activity, negative = inhibition read?
Answer: inconclusive: -79.5% [inhibitor]

Question: With `COc1cc(/C=C/C(=O)O)cc(S(=O)(=O)Nc2ccc3c(c2)CCC3)c1OC` as the compound, how does the Potency read?
Answer: inconclusive: 79.4 µM [inhibitor, single point]
